# Test results reported in PubChem BioAssay AID2546 (National Center for Advancing Translational Sciences (NCATS), 2010).
# In all, about 310,000 compounds went through this assay and about 11,000 (3.5%) were called active. This list was built around the results that the source calls inconclusive (neither active nor inactive); the mix of calls is not that of the screen. The call rests on the fitted dose curve; in most records, active means well fitted inhibition curve with a large enough effect; inconclusive means small, poorly fitted or top-dose-only effect, or effect the other way; inactive means flat fitted curve, though single readings scatter. No potency is given beside an inconclusive call; the fits are too rough.
# Test: VP16 counterscreen qHTS for inhibitors of ROR gamma transcriptional activity;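 further: Gal4-VP16 expression switched on by copper sulfate through the metallothionein promoter; nearly all actives have a fitted effect of over 50% in size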
# Settings: Drosophila S2 Gal4-VP16 UAS-luciferase, luminescence, 20 h; activity, negative = inhibition: at 53.6 µM (top of the series)
# On the % scale 0 is the no-effect control and ±100 the full control effect; potency means the concentration at half of the fitted maximal effect; tags describe the fitted curve by direction and shape.
SMILES,Potency,"activity, negative = inhibition"
COC(C(=O)N1CCC(n2nccc2NC(=O)C2CC2)CC1)c1ccccc1 (stereo not drawn),"inconclusive [inhibitor, single point]",–
COc1cc(/C=N/Nc2nncn2N)ccc1OCc1c(C)no[n+]1[O-],"inconclusive [inhibitor, single point]",–
O=C(NNC(=O)c1cc2ccccc2cc1O)c1cccs1,"inconclusive [activator, partial curve]",–
COc1ccccc1NC(=S)NCC1CCCO1 (stereo not drawn),"inconclusive [activator, single point]",–
CCCOC(=O)c1[nH]c2c(c1C)C(=O)CC(c1cc(OC)c(OC)c(OC)c1)C2 (stereo not drawn),"inconclusive [inhibitor, partial curve]",–
Cc1ccccc1-n1ncc2c1CC(C)(C)CC2NC(=O)CCN1CCCCC1=O (stereo not drawn),–,inactive: -9.02%
O=C1C(Cl)=C(N2CCCCC2)C(=O)C(Cl)=C1c1cnc(N2CCCCC2)s1,"inconclusive [inhibitor, single point]",–
C/C(=N\NC(=O)COc1ccccc1-c1ccccc1)c1ccccn1,"inconclusive [inhibitor, full curve, poor fit]",–
N#CCCS(=O)(=O)c1nnnn1-c1ccccc1,active: 4.47 µM,–
Cc1cc2oc(=O)cc(C)c2cc1NC(=O)CCl,"inconclusive [inhibitor, single point]",–
COc1ccc(C(=O)NC(=S)NC2CCCCC2)cc1,active: 6.31 µM,–
CC(=O)N1CCC2(CC1)CCN(c1ccc(-c3ccccc3)cc1)CC2,"inconclusive [inhibitor, single point]",–
CCc1ccc(OCc2ccccc2C(=O)Nc2ccc3nc(C)cc(N)c3c2)cc1,"inconclusive [inhibitor, single point]",–
C/C(=N\NC(=O)CSCc1ccccc1Cl)c1cc(O)ccc1O,active: 11.2 µM,–
COc1ccc(-c2cc(C(=O)N/N=C/c3sccc3C)c3ccccc3n2)c(OC)c1,"inconclusive [inhibitor, partial curve]",–
CCOc1ccccc1CN1CCCC(CNC(=O)Cc2ccc(OC)cc2)C1 (stereo not drawn),–,inactive: -0.771%
CC(C)C(=O)Nc1ncc(Cc2cccc(Cl)c2)s1,"inconclusive [inhibitor, partial curve]",–
CC(=O)N1CC(C)Sc2ccc(S(=O)(=O)NCc3ccc(Cl)cc3)cc21 (stereo not drawn),"inconclusive [inhibitor, single point]",–
CCOC(=O)c1ccc(-c2ccc(C3Nc4ccccc4C(=O)N3O)o2)cc1 (stereo not drawn),"inconclusive [inhibitor, single point]",–
COc1ccc(Oc2ccc(C(F)(F)F)cc2NC(=O)c2ccc(F)cc2)cc1,–,inactive: 2.56%
CN(C1CCCCC1)S(=O)(=O)c1cccc(C#N)c1,–,inactive: 9.93%
CCOC(=O)Cc1ccc2sc(-c3ccccc3)nc2c1,"inconclusive [inhibitor, single point]",–
CCN(CC)c1cc(Cl)c2nonc2c1N,–,inactive: 1.11%
Cc1cccc(N2CCN(C(=S)Nc3ccc4nc(N5CCN(C)CC5)cc(C)c4c3)CC2)c1C,active: 4.47 µM,–

SMILES,Potency,"activity, negative = inhibition"
CC1(COc2ccc(CC3SC(=O)NC3=O)cc2)CCCCC1 (stereo not drawn),"inconclusive [inhibitor, single point]",–
COc1ccc(-c2nn(-c3ccccc3)cc2C(=O)OCC(=O)c2ccc(C)c([N+](=O)[O-])c2)cc1,active: 17.8 µM,–
Cc1ccc(-c2cc(C(=O)n3cnc4ccccc43)c3ccccc3n2)cc1C,active: 12.6 µM,–
C[C@H](NC(=O)Cc1ccccc1)C(=O)N1CCC2(CC1)NCCc1[nH]cnc12,–,inactive: -6.93%
Cc1cccc(NC(=S)N(CCCN2CCCC2)Cc2cccn2Cc2ccc(Cl)cc2)c1,"inconclusive [inhibitor, single point]",–
COC(=O)c1ccccc1NC(=O)Oc1ccc(C(C)C)cc1,–,inactive: -1.18%
COc1ccc(Cc2nc3ccc(C(=O)N(C)Cc4nccs4)cc3o2)cc1OC,"inconclusive [inhibitor, single point]",–
CC1=C(C(=O)Nc2cccc([N+](=O)[O-])c2)C2(CCC(C)CC2)OC1=O (stereo not drawn),"inconclusive [inhibitor, single point]",–
COc1ccc(N2CCN(S(=O)(=O)c3ccc4c(c3)NC(=O)C(C)S4)CC2)cc1 (stereo not drawn),"inconclusive [inhibitor, single point]",–
COc1ccccc1OCc1nc2ccccc2n1C,"inconclusive [activator, full curve]",–
Cc1ccc2nc(-c3ccncc3)cc(C(=O)NCCc3ccc(F)cc3)c2c1,–,inactive: -11%
O=c1c2sccc2[nH]c(=S)n1Cc1ccccc1,active: 2.82 µM,–
COc1ccc(Cc2nnc(NC(=O)c3ccccc3[N+](=O)[O-])s2)cc1,–,inactive: 1.99%
CCOC(=O)c1ccc(N2C(=O)CC(Sc3ncccn3)C2=O)cc1 (stereo not drawn),"inconclusive [inhibitor, single point]",–
Clc1ccc(/C=C/c2nc3ccccc3[nH]2)c(Cl)c1,active: 7.08 µM,–
O=C(O)c1ccc(CSc2nc(-c3ccc(Cl)cc3)cc(C(F)(F)F)n2)cc1,"inconclusive [inhibitor, single point]",–
CCN(CC)CC(=O)Nc1nc(-c2ccc(Cl)cc2)cs1,active: 20 µM,–
CCCOc1ccc(C(=O)NC(=S)NCc2cccnc2)cc1,active: 12.6 µM,–
Cc1cc(C)c2nc(N(CCN(C)C)C(=O)/C=C/c3cccs3)sc2c1,–,inactive: -16.5%
Nc1ccc(C(=O)O)cc1[N+](=O)[O-],–,inactive: -10.2%
O=C(CCN1C(=O)/C(=C/c2cccs2)SC1=S)NC1=NCCS1,"inconclusive [inhibitor, single point]",–
CCCCNS(=O)(=O)c1ccc(S(=O)(=O)NCc2ccncc2)cc1,"inconclusive [inhibitor, single point]",–
O=C(NN1C(=O)c2ccccc2C1=O)C1CCCCC1,–,inactive: -0.633%
CCn1c(SCC(=O)Nc2cc(C)on2)nc2c([nH]c3ccccc32)c1=O,"inconclusive [inhibitor, single point]",–
